Here are results for 44 compounds from publication PMC4336329 (PLoS ONE, 2015).

The campaign covered roughly 310,000 compounds. About 2,200 (0.71%) showed an effect of 50% or more. Effects have a minus sign here. This is one part of the list.

For the test, the target named is human ether-à-go-go-related gene (hERG) potassium channel (human, UniProt Q12809). Kind of test: primary screen, population patch clamp on CHO cells stably expressing hERG.
Sequence of human ether-à-go-go-related gene (hERG) potassium channel (Q12809 whole entry, looked up): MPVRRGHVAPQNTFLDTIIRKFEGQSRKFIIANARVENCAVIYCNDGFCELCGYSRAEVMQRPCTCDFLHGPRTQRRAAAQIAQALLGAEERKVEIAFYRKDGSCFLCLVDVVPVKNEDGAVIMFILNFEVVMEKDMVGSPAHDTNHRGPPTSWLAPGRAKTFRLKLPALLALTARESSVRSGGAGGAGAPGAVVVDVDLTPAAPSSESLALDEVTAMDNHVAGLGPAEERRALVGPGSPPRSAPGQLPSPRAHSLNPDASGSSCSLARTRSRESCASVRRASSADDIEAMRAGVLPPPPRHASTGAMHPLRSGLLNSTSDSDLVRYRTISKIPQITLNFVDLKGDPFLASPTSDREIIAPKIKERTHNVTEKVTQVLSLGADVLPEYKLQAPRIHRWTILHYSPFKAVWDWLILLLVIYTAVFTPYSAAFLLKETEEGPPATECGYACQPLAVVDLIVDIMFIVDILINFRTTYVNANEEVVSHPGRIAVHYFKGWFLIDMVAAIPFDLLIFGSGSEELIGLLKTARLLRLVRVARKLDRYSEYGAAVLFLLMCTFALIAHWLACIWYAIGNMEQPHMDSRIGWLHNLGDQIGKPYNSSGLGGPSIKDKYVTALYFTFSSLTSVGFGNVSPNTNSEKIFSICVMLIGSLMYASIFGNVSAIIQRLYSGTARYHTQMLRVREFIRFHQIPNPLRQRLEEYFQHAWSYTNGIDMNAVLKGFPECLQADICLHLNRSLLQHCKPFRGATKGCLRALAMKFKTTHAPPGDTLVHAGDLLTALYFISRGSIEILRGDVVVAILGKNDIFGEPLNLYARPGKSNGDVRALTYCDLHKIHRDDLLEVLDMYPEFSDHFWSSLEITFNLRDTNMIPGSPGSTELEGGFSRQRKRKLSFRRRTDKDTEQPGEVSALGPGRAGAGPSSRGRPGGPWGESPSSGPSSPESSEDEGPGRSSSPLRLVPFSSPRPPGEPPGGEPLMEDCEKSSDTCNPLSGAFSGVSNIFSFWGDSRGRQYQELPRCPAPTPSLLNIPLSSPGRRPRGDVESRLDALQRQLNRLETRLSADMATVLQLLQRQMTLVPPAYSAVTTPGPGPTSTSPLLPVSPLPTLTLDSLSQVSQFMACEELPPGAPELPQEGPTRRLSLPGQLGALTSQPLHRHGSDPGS
For the compound `CCCOc1ccccc1-c1nc2n[nH]nc2c(=O)[nH]1`, the “hERG current change (%, negative = inhibition) at 1uM” value is recorded as -14.2%. The result for `Cc1cc(OCC(=O)N(Cc2cccs2)C2CCS(=O)(=O)C2)ccc1Cl` (centres unmarked) reads 12.9%; that for `N#CCC(=N)N1CCN(c2ccccc2Cl)CC1`, 2.37%; that for `Cn1c(NNC(=O)c2ccccc2F)cc(=O)n(C)c1=O`, 11.5%. The result for `C=CCOc1c(CCC)cc(CCC)cc1C(N)=O` reads 0.27%.

Consider `COc1ccc(/C=C/C(=O)O)cc1COc1ccccc1C`, for which the “hERG current change (%, negative = inhibition) at 1uM” value is given as -0.653%. The value for `COc1ccc(CN2C(=O)CN=C2Nc2cc(C)ccc2C)cc1.Cl` was 11.2%. The value for `COc1ccc(C2NC(=O)C(C#N)=C(S)N2c2ccccc2)cc1OC` (centres unmarked) was 7.56%; that for `CCOC(=O)c1c(C)n(C(C)C)c2ccc(OC)cc12` was 10.2%; that for `O=C(C1CCN(S(=O)(=O)c2ccc(Cl)cc2)CC1)N1CCN(c2ccccn2)CC1` was -22.6%. The value for `CCn1c(CO)nc2c1c(=O)[nH]c(=O)n2Cc1ccccc1` was 10.7%; that for `Cc1cc(OCC(=O)C(C)(C)C)c2c(-c3ccccc3)cc(=O)oc2c1` was 2.99%. Regarding `CCc1cc2cc(C)cc(C)c2nc1SCC(=O)Nc1cc(C)on1`, the “hERG current change (%, negative = inhibition) at 1uM” value was determined as 7.87%. The result for `Cc1sccc1/C=N/NC(=O)c1cccc2ccccc12` reads 11.9%; that for `O=C(N/N=C/c1cnc(N2CCCCC2)s1)c1ccc(Cl)cc1`, 6.42%. The value for `CC(c1ccccc1)n1c(CCCO)nc2ccccc21` (centres unmarked) was 7.24%; that for `NC(=O)CSC1=N/C(=C\c2ccco2)C(=O)N1c1ccc(OC(F)F)cc1` was 17.2%. The value for `O=C1C(Cl)=C(Nc2ccc(F)cc2)C(=O)N1CCc1ccccc1` was 10.9%. Consider `CCOC(=O)C1CCCN1C(=O)c1ccc(OC)c(Br)c1` (centres unmarked), for which the “hERG current change (%, negative = inhibition) at 1uM” value came to 6.9%.

Take `O=C(NC12CC3CC(CC(C3)C1)C2)c1cc([N+](=O)[O-])ccc1Cl`: the “hERG current change (%, negative = inhibition) at 1uM” value is given as 11.7%. The value for `COc1ccc2[nH]c3c(NCCN4CCCCC4)ncnc3c2c1` was -33.2%; that for `COC(CNC(=O)C1CCC(CNS(=O)(=O)c2c(C)cc(C)cc2C)CC1)OC` (centres unmarked) was 1.29%; that for `O=C(NCCCN1CCOCC1)c1ccccc1-c1ccccc1` was 6.23%. The value for `Cc1cccc(C)c1NC(=O)CN(C)C(=O)Cn1c(=O)cnc2ccccc21` was 18.5%.

As for `O=C(Nc1ccc(S(=O)(=O)Nc2nccs2)cc1)c1cc(=O)[nH]c2ccccc12`, the “hERG current change (%, negative = inhibition) at 1uM” value was determined as 11.9%. The result for `O=[N+]([O-])c1ccc(N2CCNCC2)c(S(=O)(=O)N2CCOCC2)c1` reads 28.6%. Take `CC(=O)Nc1nc(NC(=O)C(Cl)(Cl)Cl)n(-c2ccccc2)n1`: the “hERG current change (%, negative = inhibition) at 1uM” value stood at 12.2%. The result for `O=C(c1ccncc1)N1CCN(S(=O)(=O)c2cccc(Cl)c2)CC1` reads 9%. The result for `CCc1ccc(NC(=O)C(C)OC(=O)CC(NC(C)=O)c2ccccc2)cc1` (centres unmarked) reads 14.4%; that for `COC(=O)c1c(C)oc2ccc(N(C(=O)c3ccncc3)S(=O)(=O)c3ccc(C)cc3C)cc12`, 11.8%; that for `O=C(CN1CCCC1)Nc1ccc(S(=O)(=O)N2CCCCC2)cc1`, 13.5%. The value for `O=c1ccnc(S/C=C/c2ccccc2)[nH]1` was -5.55%; that for `CCCCCCCCCCCCN1[C@@H](CC(C)=O)c2cc(C(F)(F)F)ccc2S1(=O)=O` was 23%; that for `CCOc1ccc2nc(N(CCN(CC)CC)C(=O)c3ccc([N+](=O)[O-])cc3)sc2c1.Cl` was -36.2%. Consider `Cn1c(=O)c2c(ncn2CC(=O)OCC(=O)NNC(=O)c2ccc(Cl)cc2)n(C)c1=O`, for which the “hERG current change (%, negative = inhibition) at 1uM” value was determined as 5.67%. The result for `Cc1ccc(C)c(NC(=O)c2cnn3ccccc23)c1` reads 10.9%; that for `Cc1ccc(/C=N/N2CCN(C3c4ccccc4-c4ccccc43)CC2)s1`, 7.81%; that for `O=C(NC1CCCCC1)N1CCN(c2ccccc2)CC1`, 2.28%. The value for `O=C(NNC(=O)c1ccco1)Nc1ccccc1` was 14.7%; that for `CC(C)OC(=O)NCCOC(=O)Nc1ccc(Cl)c(Cl)c1` was 4.66%; that for `O.O=CC(=O)c1ccccc1` was 15.9%. The result for `COc1ccc(C2C(C(=O)Nc3cc(OC)c(OC)c(OC)c3)c3ccccc3C(=O)N2C)cc1OC` (centres unmarked) reads 5.82%; that for `O=C1NC[C@@H](Cc2cccc3ccccc23)N(CCCCC2CCCCC2)C1=O`, 12.8%; that for `CCOC(=O)C(=Cc1ccc(-c2ccsc2C(=O)OC)o1)C(=O)OCC`, -3.24%.
